# According to the supplement of paper PMC8728848:
# The other results are listed elsewhere or left out.
# B1: PX9961T-pdi-555-33-555 (Parabacteroides distasonis) (protein)
# chain: FDEETAFQSPTLVYVNTVASLYNNMFKIMGNDRHVYDLNTFSSDEAMLPCRIGDWEDGGLWQNIFLHRWGTMNDLTKNSWDFLYEQIGKCNQSVDKLQAFAEEQPDVEYFKVYLEEVRAVRAFFYYELLDLFARVPLVTSSTTPMSEVKQSERSVVFNFVRSELEEALPYLSDNRSNQKGEYYGRITKPVAYMILAKLALNAEVYADDNWTDGNRPAGKNIKFTVDGKEMNAWEATIAYVDKLEALGYKLQGNFSENFAVANETSVENIFTVPMDPVAYPDAKDYNLVRTRHYDHATAYGQSGWNGSCATVKAMNVFKFGTADEDPRCKLTYFTGEVTGPDGKTIYTEWDGQKVPLKYEPNAPKVYMDASDGLLVKTAGARMAKYEFDQNAQDGGNLHGNDCVIFRFADALLMKAEAKIRLGQNGDDEVNQVRNRVGAKPLQNVTLDTLLDERMLELAWEGVRRQDLIRFGKFTEATVDRYVGVKHFASSLDYQEDKTGYTTVFSIYADILSLNPNLTQNPGY
# Assays:
# Assay in all cases: glycan array binding signal (z-score within array); higher = stronger binding
# Details in all cases: glycan notation: IUPAC condensed, linker removed
# [1] = target: Gal(b1-3)GalNAc(b1-3)Gal(a1-4)Gal(b1-4)Glc
# In short: (§1)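 The binding signal is a Z-score computed within each array. Data were drawn from 3228 arrays in the Consortium for Functional Glycomics database, restricted to those with a known protein sequence. Scores were averaged over arrays of the same protein sequence at different concentrations or buffers, and over linkers, and negative values can be taken as non-binding.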
# [2] = target: Gal(b1-3)GalNAc(b1-4)Gal(b1-4)Glc
# In short: as §1
# [3] = target: Gal(b1-3)GalNAc(b1-4)[Neu5Ac(a2-3)]Gal(b1-4)Glc
# In short: as §1
# Gal(b1-3)GlcNAc = target: Gal(b1-3)GlcNAc
# In short: as §1
# [4] = target: Gal(b1-3)GlcNAc(a1-3)Gal(b1-4)GlcNAc
# In short: as §1
# [5] = target: Gal(b1-3)GlcNAc(a1-6)Gal(b1-4)GlcNAc
# In short: as §1
# Gal(b1-3)GlcNAc(b1-2)Man = target: Gal(b1-3)GlcNAc(b1-2)Man
# In short: as §1
# [6] = target: Gal(b1-3)GlcNAc(b1-2)Man(a1-3)[Gal(b1-3)GlcNAc(b1-2)Man(a1-6)]Man(b1-4)GlcNAc(b1-4)GlcNAc
# In short: as §1
# [7] = target: Gal(b1-3)GlcNAc(b1-2)Man(a1-3)[Gal(b1-3)GlcNAc(b1-2)Man(a1-6)]Man(b1-4)GlcNAc(b1-4)[Fuc(a1-6)]GlcNAc
# In short: as §1
# [8] = target: Gal(b1-3)GlcNAc(b1-2)Man(a1-3)[GlcNAc(b1-4)][Gal(b1-3)GlcNAc(b1-2)Man(a1-6)]Man(b1-4)GlcNAc(b1-4)GlcNAc
# In short: as §1
# [9] = target: Gal(b1-3)GlcNAc(b1-2)[Gal(b1-3)GlcNAc(b1-6)]Man(a1-6)[Gal(b1-3)GlcNAc(b1-2)Man(a1-3)]Man(b1-4)GlcNAc(b1-4)GlcNAc
# In short: as §1
# [10] = target: Gal(b1-3)GlcNAc(b1-3)Gal(b1-3)GlcNAc
# In short: as §1
# [11] = target: Gal(b1-3)GlcNAc(b1-3)Gal(b1-4)Glc
# In short: as §1
# [12] = target: Gal(b1-3)GlcNAc(b1-3)Gal(b1-4)GlcNAc
# In short: as §1
# [13] = target: Gal(b1-3)GlcNAc(b1-3)Gal(b1-4)GlcNAc(b1-2)Man(a1-3)[Gal(b1-3)GlcNAc(b1-3)Gal(b1-4)GlcNAc(b1-2)Man(a1-6)]Man(b1-4)GlcNAc(b1-4)GlcNAc
# In short: as §1
# [14] = target: Gal(b1-3)GlcNAc(b1-3)Gal(b1-4)GlcNAc(b1-2)[Gal(b1-3)GlcNAc(b1-3)Gal(b1-4)GlcNAc(b1-6)]Man(a1-6)[Gal(b1-3)GlcNAc(b1-3)Gal(b1-4)GlcNAc(b1-2)Man(a1-3)]Man(b1-4)GlcNAc(b1-4)[Fuc(a1-6)]GlcNAc
# In short: as §1
# [15] = target: Gal(b1-3)GlcNAc(b1-3)Gal(b1-4)GlcNAc(b1-3)Gal(b1-4)GlcNAc(b1-2)[Gal(b1-3)GlcNAc(b1-3)Gal(b1-4)GlcNAc(b1-3)Gal(b1-4)GlcNAc(b1-6)]Man(a1-6)[Gal(b1-3)GlcNAc(b1-3)Gal(b1-4)GlcNAc(b1-3)Gal(b1-4)GlcNAc(b1-2)Man(a1-3)]Man(b1-4)GlcNAc(b1-4)[Fuc(a1-6)]GlcNAc
# In short: as §1
# [16] = target: Gal(b1-3)GlcNAc(b1-3)Gal(b1-4)GlcNAc(b1-6)[Gal(b1-3)GlcNAc(b1-3)]Gal(b1-4)Glc
# In short: as §1
# [17] = target: Gal(b1-3)GlcNAc(b1-3)Gal(b1-4)[Fuc(a1-3)]GlcNAc
# In short: as §1
# [18] = target: Gal(b1-3)GlcNAc(b1-3)Gal(b1-4)[Fuc(a1-3)]GlcNAc(b1-6)[Gal(b1-3)GlcNAc(b1-3)]Gal(b1-4)Glc
# In short: as §1
# [19] = target: Gal(b1-3)GlcNAc(b1-3)GalNAc
# In short: as §1
# [20] = target: Gal(b1-3)GlcNAc(b1-6)Gal(b1-4)GlcNAc
# In short: as §1
# [21] = target: Gal(b1-3)GlcNAc(b1-6)GalNAc
# In short: as §1
# [22] = target: Gal(b1-3)GlcNAc(b1-6)[Gal(b1-3)]GalNAc
# In short: as §1
# Gal(b1-3)GlcNAc6S = target: Gal(b1-3)GlcNAc6S
# In short: as §1
# [23] = target: Gal(b1-3)[Fuc(a1-4)]GlcNAc
# In short: as §1
# [24] = target: Gal(b1-3)[Fuc(a1-4)]GlcNAc(b1-2)Man
# In short: as §1
# [25] = target: Gal(b1-3)[Fuc(a1-4)]GlcNAc(b1-2)Man(a1-3)[Gal(b1-3)[Fuc(a1-4)]GlcNAc(b1-2)Man(a1-6)]Man(b1-4)GlcNAc(b1-4)[Fuc(a1-6)]GlcNAc
# In short: as §1
# [26] = target: Gal(b1-3)[Fuc(a1-4)]GlcNAc(b1-3)Gal(b1-3)[Fuc(a1-4)]GlcNAc
# In short: as §1
# [27] = target: Gal(b1-3)[Fuc(a1-4)]GlcNAc(b1-3)Gal(b1-4)[Fuc(a1-3)]GlcNAc
# In short: as §1
# [28] = target: Gal(b1-3)[Fuc(a1-4)]GlcNAc(b1-6)GalNAc
# In short: as §1
# [29] = target: Gal(b1-3)[GlcNAc(b1-6)]GalNAc
# In short: as §1
# [30] = target: Gal(b1-3)[Neu5Ac(a2-6)]GalNAc
# In short: as §1
# [31] = target: Gal(b1-3)[Neu5Ac(a2-6)]GlcNAc(b1-4)Gal(b1-4)Glc
# In short: as §1
# [32] = target: Gal(b1-3)[Neu5Ac(b2-6)]GalNAc
# In short: as §1
# Gal(b1-4)Gal = target: Gal(b1-4)Gal
# In short: as §1
# [33] = target: Gal(b1-4)GalNAc(a1-3)[Fuc(a1-2)]Gal(b1-4)GlcNAc
# In short: as §1
# [34] = target: Gal(b1-4)GalNAc(b1-3)[Fuc(a1-2)]Gal(b1-4)GlcNAc
# In short: as §1
binder,measurement,setting,value
B1,glycan array binding signal (z-score),[1],-0.576
same,glycan array binding signal (z-score),[2],0.247
same,glycan array binding signal (z-score),[3],-0.841
same,glycan array binding signal (z-score),Gal(b1-3)GlcNAc,-0.225
same,glycan array binding signal (z-score),[4],0.119
same,glycan array binding signal (z-score),[5],-0.403
same,glycan array binding signal (z-score),Gal(b1-3)GlcNAc(b1-2)Man,0.661
same,glycan array binding signal (z-score),[6],-0.248
same,glycan array binding signal (z-score),[7],0.13
same,glycan array binding signal (z-score),[8],0.011
same,glycan array binding signal (z-score),[9],0.534
same,glycan array binding signal (z-score),[10],-0.315
same,glycan array binding signal (z-score),[11],0.245
same,glycan array binding signal (z-score),[12],-0.164
same,glycan array binding signal (z-score),[13],0.42
same,glycan array binding signal (z-score),[14],-0.542
same,glycan array binding signal (z-score),[15],-0.499
same,glycan array binding signal (z-score),[16],0.044
same,glycan array binding signal (z-score),[17],-0.138
same,glycan array binding signal (z-score),[18],-0.354
same,glycan array binding signal (z-score),[19],-0.515
same,glycan array binding signal (z-score),[20],0.429
same,glycan array binding signal (z-score),[21],-0.018
same,glycan array binding signal (z-score),[22],-0.08
same,glycan array binding signal (z-score),Gal(b1-3)GlcNAc6S,0.453
same,glycan array binding signal (z-score),[23],0.33
same,glycan array binding signal (z-score),[24],0.763
same,glycan array binding signal (z-score),[25],-0.151
same,glycan array binding signal (z-score),[26],0.408
same,glycan array binding signal (z-score),[27],-0.053
same,glycan array binding signal (z-score),[28],0.004
same,glycan array binding signal (z-score),[29],-0.45
same,glycan array binding signal (z-score),[30],0.315
same,glycan array binding signal (z-score),[31],-0.231
same,glycan array binding signal (z-score),[32],-0.426
same,glycan array binding signal (z-score),Gal(b1-4)Gal,0.143
same,glycan array binding signal (z-score),[33],-0.527
same,glycan array binding signal (z-score),[34],-0.157
